From article PMC4336329 (PLoS ONE, 2015)
Among all 310,000 compounds or so, about 2,200 (0.71%) showed an effect of 50% or more. Effects have a minus sign here. Some of the results follow.

target: human ether-à-go-go-related gene (hERG) potassium channel (human, UniProt Q12809); experiment: primary screen, population patch clamp on CHO cells stably expressing hERG
Sequence (Q12809 whole entry, looked up): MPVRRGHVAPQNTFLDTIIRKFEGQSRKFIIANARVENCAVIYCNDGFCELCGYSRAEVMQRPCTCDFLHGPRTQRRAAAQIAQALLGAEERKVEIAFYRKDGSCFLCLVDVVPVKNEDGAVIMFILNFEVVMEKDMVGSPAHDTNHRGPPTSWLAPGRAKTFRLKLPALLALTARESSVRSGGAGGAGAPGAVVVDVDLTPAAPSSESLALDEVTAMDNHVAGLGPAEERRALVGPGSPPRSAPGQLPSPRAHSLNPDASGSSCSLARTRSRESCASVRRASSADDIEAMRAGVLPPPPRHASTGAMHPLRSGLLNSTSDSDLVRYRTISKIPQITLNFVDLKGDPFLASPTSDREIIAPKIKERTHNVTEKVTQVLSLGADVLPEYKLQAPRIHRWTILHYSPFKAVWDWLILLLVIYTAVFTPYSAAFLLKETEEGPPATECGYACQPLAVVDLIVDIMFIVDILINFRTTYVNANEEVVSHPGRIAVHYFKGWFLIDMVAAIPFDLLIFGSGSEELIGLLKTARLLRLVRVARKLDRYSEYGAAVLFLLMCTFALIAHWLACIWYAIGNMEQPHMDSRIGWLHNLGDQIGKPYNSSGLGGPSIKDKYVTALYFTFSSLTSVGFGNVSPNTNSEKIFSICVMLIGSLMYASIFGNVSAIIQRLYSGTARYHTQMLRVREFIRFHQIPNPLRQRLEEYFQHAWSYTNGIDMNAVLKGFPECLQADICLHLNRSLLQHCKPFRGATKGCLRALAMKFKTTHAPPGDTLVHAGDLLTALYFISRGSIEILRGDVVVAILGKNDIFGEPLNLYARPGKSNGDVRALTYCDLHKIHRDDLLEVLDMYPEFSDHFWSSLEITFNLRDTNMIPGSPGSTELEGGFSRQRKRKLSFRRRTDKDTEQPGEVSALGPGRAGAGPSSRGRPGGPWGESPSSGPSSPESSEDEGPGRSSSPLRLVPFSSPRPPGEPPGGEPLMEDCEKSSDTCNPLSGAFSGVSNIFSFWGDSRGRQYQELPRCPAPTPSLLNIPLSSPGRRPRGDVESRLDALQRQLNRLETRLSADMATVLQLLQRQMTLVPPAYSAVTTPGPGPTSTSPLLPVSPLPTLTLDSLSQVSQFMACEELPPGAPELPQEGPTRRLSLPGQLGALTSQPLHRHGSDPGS

Structure (SMILES) | hERG current change (%, negative = inhibition) at 1uM [%]
CCCCN(C(=O)c1c(CC)noc1C)c1c(N)n(CCCC)c(=O)[nH]c1=O | 5.96
CCc1ccc(C2=Nn3c(nnc3-c3cccs3)SC2)cc1 | -7.75
COc1cc2c3nnc(-c4ccccc4)c-3cn(Cc3ccccc3F)c2cc1OC | 11
COc1ccc(-c2cc(C(=O)Nc3ccccc3)on2)cc1 | 15.6
O=C1CC(Cc2ccccc2)C(=O)N1CCc1ccc2c(c1)OCO2 (stereo not shown) | 3.24
CC(C)C(NC(=O)OCc1ccccc1)C(=O)O (stereo not shown) | 7.14
CCOC(=O)c1sc2nc(N3CCOCC3)c3c(c2c1N)CCCC3 | 10.6
COC(=O)c1scc(C)c1NS(=O)(=O)c1ccc(NC(C)=O)cc1 | 2.88
CC1CCN(C(=O)COC(=O)c2ccccc2NC(=O)c2ccco2)CC1 | -8.23
CC(C)C(=O)NC(Nc1cccc([N+](=O)[O-])c1)C(Cl)(Cl)Cl (stereo not shown) | 8.76
CCOc1ccc(C2OC(=O)Cc3cc(OC)c(OC)cc32)cc1 (stereo not shown) | 3.1
CN(C)S(=O)(=O)c1ccc(C(=O)Nc2cc(S(=O)(=O)Nc3ccccc3Cl)ccc2N2CCCCC2)cc1 | 12.7
COc1ccc(Cl)cc1S(=O)(=O)NC(C)C(=O)NCCCn1ccnc1 (stereo not shown) | 8.42
CN(C)/C=C(/C(=O)c1ccc(Cl)cc1)n1cncn1 | 6.85
CCOC(=O)C1CCN(C(=O)CN2C(=O)COc3ccc(C(C)(C)C)cc32)CC1 | 11
COc1ccc(Nc2nc(C(=O)N(CCO)Cc3ccccc3)cs2)cc1 | 5.07
CCOC(=O)C[C@H]1c2ccccc2S(=O)(=O)N1C1CC1 | 6.5
CCN(CC)CCN(Cc1cc2cc3c(cc2[nH]c1=O)OCCO3)C(=S)NCCCN(C)C | 14.5
CCOc1ccc(N=Cc2ccc3ccccc3c2)cc1 | 5.91
COc1ccc(C(=O)c2c(O)cc(-c3ccc(OC)cc3)oc2=O)cc1 | 12.3
C[C@]1(CO)CCC[C@@]2(C)C1CC[C@@H](CO)[C@@H]2CCc1ccoc1 (stereo partly shown) | 11
Cc1cc(C)c(NC(=O)C2CC3CCC2C3)c(C)c1 (stereo not shown) | 23.3

Structure (SMILES) | hERG current change (%, negative = inhibition) at 1uM [%]
CCCCCNS(=O)(=O)c1cc2c3c(c1)CCC(=O)N3CCC2 | 12.8
O=C1NCC(O)=C1C=NC12CC3CC(CC(C3)C1)C2 [14736166] | 6.01
CCCCOc1ccc(C(=O)N2CCN(c3ccc(N4CCOCC4)nn3)CC2)cc1 | -6.28
CCOC(=O)c1cc2occc2n1Cc1c(F)cccc1Cl | -1.33
COc1ccc(S(=O)(=O)N(C)CC(=O)Nc2ccc3c(c2)OCO3)cc1OC | 5.56
COC(=O)C1CCN(C(=O)COC(=O)c2ccc(=O)n(Cc3ccccc3)n2)CC1 | 14.3
COc1ccc(S(=O)(=O)N(Cc2ccccc2)c2ccccc2C(=O)N2CCOCC2)cc1 | 11.4
Cc1ccc(/C=N/NC(=O)c2cc3c(ccc4ccccc43)o2)cc1[N+](=O)[O-] | -0.662
Nn1c(-c2ccccn2)nnc1-c1ccccn1 | 0.52
Cc1ccc(S(=O)(=O)N2CCN(S(C)(=O)=O)CC2)cc1 | 1.23
Cc1ccc(NC(=O)Cn2ncn3c(cc4ccccc43)c2=O)cc1F | -1.29
CN(C)S(=O)(=O)c1ccc(C(=O)NCc2ccccc2)cc1 | -2.73
CCS(=O)(=O)Nc1ccc(C(=O)NCCSc2ccccc2)cc1 | 8.08
CCC(C)(C)NC(=O)C(c1ccccc1Cl)N(Cc1cccnc1)C(=O)CCC(=O)Nc1cc(C)on1 (stereo not shown) | 14.3
Cn1c(=O)cc(N)n(Cc2ccccc2)c1=O | 14
O=S(=O)(Nc1ccc(Br)cn1)c1ccc(Cl)s1 | 11.8
COc1ccc(NC(=O)CN(C)S(=O)(=O)c2ccc3c(c2)OCCO3)c2ncccc12 | 12.5
CCC(C)NS(=O)(=O)c1ccc(NS(=O)(=O)c2ccc(F)cc2)cc1 (stereo not shown) | 6.33
CCOC(=O)c1c(NC(=O)COC(=O)c2nc(Cl)ccc2Cl)sc(C(=O)N(C)C)c1C | 11.4
CCCCn1c(=O)[nH]c(=O)c2c1nc(COc1ccc(C#N)cc1)n2CCC | -14.8
Cc1ccc(CCNC(=O)C2CCN(c3nn4c(=O)cc(C)nc4s3)CC2)cc1 | 0.535
COc1ccc(-c2ncc3ccccn23)cc1OC.O=C(O)C(=O)O | 3.2

Structure (SMILES) | hERG current change (%, negative = inhibition) at 1uM [%]
COc1ccc(-c2noc(N3CCC(C(=O)NCc4ccc(F)cc4)CC3)n2)cc1 | 8.94
COc1ccc(N2CCN(c3c(S(=O)(=O)c4ccccc4)cnc4ccc(OC)cc34)CC2)cc1 | 1.01
CS(=O)(=O)N1CCC(C(=O)NNC(=O)Nc2ccc(F)c(Cl)c2)CC1 | -1.87
COc1cc(OC)c(OC)cc1CN1CCN(C(=O)COc2ccc3ccccc3c2)CC1.O=C(O)C(=O)O | -8.83
CCSc1nnc(N2C(=O)C(O)=C(C(=O)c3ccco3)C2c2cccc(OC)c2)s1 (stereo not shown) | 9.72
CC(=O)c1ccc(N2C(=O)[C@@H]3C(CCC(N)=O)NC4(C(=O)Nc5c4ccc(Cl)c5C)[C@@H]3C2=O)cc1 (stereo partly shown) | 11.1
CCN=C1SC(C(=O)Nc2ccccc2)CC(=O)N1CC (stereo not shown) | 15.6
COC(=O)C[N+](C)(C)CC#Cc1ccccc1.[Br-] | 13.1
O=C(Nc1nnc(CC(=O)N2CCOCC2)s1)C1COc2ccccc2O1 (stereo not shown) | 8.42
COc1ccc(NC(=O)C(C)N(c2ccc(C)cc2)S(C)(=O)=O)cc1 (stereo not shown) | -17.2
COc1ccccc1-n1cc(CN2CCN(C3CCCC3)C(CCO)C2)cn1 (stereo not shown) | 4.57
COC(=O)c1cc2oc(C)cc2n1CC(=O)N1CCCc2ccccc21 | 6.41
C/C(=N\NC(=O)CC(C)C)c1ccc(N2CCCCC2)cc1 | 1.96
O=C(CSc1ccc(Cl)cc1)NC1CCCc2ccccc21 (stereo not shown) | 12.6
O=C(NCc1ccccc1)c1onc(CS(=O)(=O)c2ccccn2)c1C(=O)NCc1ccccc1 | 17.2
CCOC(=O)Nc1sc(NS(=O)(=O)c2ccccc2)nc1C | 8.66
COc1ccccc1NC(=O)c1cc(Cl)ccc1NC(=O)c1ccco1 | 2.57
O=C(O)COc1ccccc1/C=N/NC(=O)c1cc2ccccc2cc1O | 10.6
CCOc1ccsc1C(=O)O | 13.5
O=C(CN1C(=O)/C(=C\c2ccc(C(F)(F)F)cc2)Sc2ccccc21)NCc1ccco1 | 3.02
O=C(COC(=O)c1cc([N+](=O)[O-])ccc1Cl)NC1CCCC1 | 1.22
CC(C)(C(N)=O)c1ccccc1 | 10.7

Structure (SMILES) | hERG current change (%, negative = inhibition) at 1uM [%]
Cc1ccsc1/C=N/n1c(-c2ccco2)n[nH]c1=S | 15.2
COc1ccccc1CC(=O)Nc1sc2c(c1C(N)=O)CCCC2 | 12
Cc1ccc2c(COC(=O)c3ccc(NC(=O)CC#N)cc3)cc(=O)oc2c1C | 1.59
N/C(=N\OC(=O)c1cc(Cl)ccc1Cl)c1cccnc1 | 8.17
Cc1sc2nc(CN3CCCC3)nc(NCc3ccncc3)c2c1C | -45.4
S=C(Cc1cccnc1)N1CCOCC1 | 13.4
Cc1cccc(C)c1NC(=O)CN(C)C(=O)c1ccc2nc[nH]c2c1 | 14
CCOC(=O)C1=C(CC)Nc2ccccc2N=C1NC(=O)CCNC(C)=O | -0.999
N/C(=N\c1nc2ccccc2o1)NC(=O)/C=C/c1ccccc1 | 9.02
Cc1ccc(Cn2c(=O)n(-c3ccccc3)c(=O)c3ccc(C(=O)NCc4ccco4)cc32)cc1 | 12.7
CC1CN/C(=C\C(=O)c2ccc(Br)cc2)C(=O)N1 (stereo not shown) | 9.76
Cc1ccc(C(=O)N2Cc3ccccc3CC2C(=O)O)cc1 (stereo not shown) | -0.914
O=c1[nH]cnc(O)c1C(c1ccc(Br)cc1)c1c(O)nc[nH]c1=O | 10
Cc1nn(-c2ccccc2)c(OC(=O)c2cccs2)c1S(=O)(=O)c1ccc([N+](=O)[O-])cc1 | 1.3
O=C(O)c1cccc(N=NN2CCCCCC2)c1 | 8.11
CC(C)(C)c1ccc(C(=O)NN2CCOCC2)cc1 | -18.9
COc1ccc(NC(=S)NCc2cccs2)cc1 | 14
CCOc1ccc(OCC(=O)N2CCOCC2)cc1 | 12.1
O=C(O)c1ccc(N/N=C/C=C/c2ccccc2[N+](=O)[O-])cc1 | 11.8
N#Cc1nc(Cc2ccccc2)oc1N1CCN(c2ccccc2)CC1 | -0.118
O=C(CCCN1C(=O)/C(=C/c2ccccc2)SC1=S)Nc1ccc(O)cc1 | 9.49
O=C(CCc1ccc(Oc2cc([N+](=O)[O-])cc([N+](=O)[O-])c2)cc1)Nc1cccc(Cl)c1 | 8.68
